Counter-ions that a name gives are not always drawn. Whole data set: some 1,900 compounds, median “cell viability of compound + 1 nM pemigatinib relative to pemigatinib-only (DMSO) wells” near 0.95, cut for the lowest 2% near 0.22. The list shows a part of the results.
Each compound was assayed on PDC-DUC18828 (assay: cell viability of compound + 1 nM pemigatinib relative to pemigatinib-only (DMSO) wells (fraction); PDC-DUC18828 is a patient-derived cholangiocarcinoma cell line; higher = less growth inhibition). Conditions: first compound 1 µM; pemigatinib concentration 1 nM; 72 h.
Method: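 Selleck Bioactive library screen in the patient-derived FGFR2 fusion-positive ICC cell line PDC-DUC18828 (500 cells/well). Each compound was tested at 1 uM with 1 nM pemigatinib, in triplicate, for 72 h. Viability was read by CellTiter-Glo and normalised to plate DMSO controls. Value is the paper's averaged normalised viability.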
Work on `O=C(O[C@H]1C[C@H]2CC[C@@H](C1)[N+]21CCCC1)C(O)(c1ccccc1)c1ccccc1` [Trospium chloride] + CCN1C(=O)N(c2c(F)c(OC)cc(OC)c2F)Cc2cnc3[nH]c(CN4CCOCC4)cc3c21 [pemigatinib] yielded a cell viability of 0.901. In the case of `CN(C)Cc1c[nH]c2ccccc12` [Gramine] + CCN1C(=O)N(c2c(F)c(OC)cc(OC)c2F)Cc2cnc3[nH]c(CN4CCOCC4)cc3c21 [pemigatinib], the cell viability is reported as 0.986. `NCC(O)c1ccc(O)cc1` (racemic) [(+,-)-Octopamine HCl] + CCN1C(=O)N(c2c(F)c(OC)cc(OC)c2F)Cc2cnc3[nH]c(CN4CCOCC4)cc3c21 [pemigatinib] was tested, and the cell viability was 0.939. With `C[C@@H]1O[C@@H](O[C@H]2C[C@@H](O)[C@]3(CO)[C@H]4[C@H](O)C[C@]5(C)[C@@H](C6=CC(=O)OC6)CC[C@]5(O)[C@@H]4CC[C@]3(O)C2)[C@H](O)[C@H](O)[C@H]1O` [Ouabain] + CCN1C(=O)N(c2c(F)c(OC)cc(OC)c2F)Cc2cnc3[nH]c(CN4CCOCC4)cc3c21 [pemigatinib] the cell viability was 0.109. Compound `CCN(C)C(=O)Oc1cccc([C@H](C)N(C)C)c1` [Rivastigmine Tartrate] + CCN1C(=O)N(c2c(F)c(OC)cc(OC)c2F)Cc2cnc3[nH]c(CN4CCOCC4)cc3c21 [pemigatinib] has a cell viability of 1.05. `CCC1(c2ccc(N)cc2)CCC(=O)NC1=O` (configuration not stated) [Aminoglutethimide] + CCN1C(=O)N(c2c(F)c(OC)cc(OC)c2F)Cc2cnc3[nH]c(CN4CCOCC4)cc3c21 [pemigatinib] gave a cell viability of 1.03. `C[C@]12CC[C@H](O)C[C@@H]1CC[C@@H]1[C@@H]2CC[C@]2(C)C(=O)CC[C@@H]12` [Epiandrosterone] + CCN1C(=O)N(c2c(F)c(OC)cc(OC)c2F)Cc2cnc3[nH]c(CN4CCOCC4)cc3c21 [pemigatinib] gave a cell viability of 0.972. In the case of `C[N+]1(C)[C@@H]2C[C@@H](OC(=O)[C@H](CO)c3ccccc3)C[C@H]1[C@@H]1O[C@@H]12` [Methscopolamine] + CCN1C(=O)N(c2c(F)c(OC)cc(OC)c2F)Cc2cnc3[nH]c(CN4CCOCC4)cc3c21 [pemigatinib], the cell viability is reported as 0.984. `CN(C)C(=O)Oc1cc(OC(=O)N(C)C)cc(C(O)CNC(C)(C)C)c1` (configuration not stated) [Bambuterol HCl] + CCN1C(=O)N(c2c(F)c(OC)cc(OC)c2F)Cc2cnc3[nH]c(CN4CCOCC4)cc3c21 [pemigatinib] was tested, and the cell viability was 0.99. `CNCC(=O)c1ccc(O)c(O)c1` [Adrenalone HCl] + CCN1C(=O)N(c2c(F)c(OC)cc(OC)c2F)Cc2cnc3[nH]c(CN4CCOCC4)cc3c21 [pemigatinib] was tested, and the cell viability was 0.881. In the case of `CC(C)N(CCNC(=O)CN1CCCC1=O)C(C)C` [Pramiracetam] + CCN1C(=O)N(c2c(F)c(OC)cc(OC)c2F)Cc2cnc3[nH]c(CN4CCOCC4)cc3c21 [pemigatinib], the cell viability is reported as 0.955. Compound `COC(=O)C1=CCCN(C)C1` [Arecoline] + CCN1C(=O)N(c2c(F)c(OC)cc(OC)c2F)Cc2cnc3[nH]c(CN4CCOCC4)cc3c21 [pemigatinib] has a cell viability of 1.02. Work on `C[C@]12CC[C@H]3[C@@H](CC[C@@]45O[C@@H]4C(O)=C(C#N)C[C@]35C)[C@@H]1CC[C@@H]2O` [Trilostane] + CCN1C(=O)N(c2c(F)c(OC)cc(OC)c2F)Cc2cnc3[nH]c(CN4CCOCC4)cc3c21 [pemigatinib] yielded a cell viability of 0.971. Work on `C[C@]12N[C@H](Cc3ccccc31)c1ccccc12` [MK-801 (Dizocilpine)] + CCN1C(=O)N(c2c(F)c(OC)cc(OC)c2F)Cc2cnc3[nH]c(CN4CCOCC4)cc3c21 [pemigatinib] yielded a cell viability of 0.932. `CC(=O)Nc1ccc(OC[C@](C)(O)C(=O)Nc2ccc([N+](=O)[O-])c(C(F)(F)F)c2)cc1` [Andarine] + CCN1C(=O)N(c2c(F)c(OC)cc(OC)c2F)Cc2cnc3[nH]c(CN4CCOCC4)cc3c21 [pemigatinib] was tested, and the cell viability was 0.994. In the case of `C[C@](O)(COc1ccc(C#N)cc1)C(=O)Nc1ccc(C#N)c(C(F)(F)F)c1` + CCN1C(=O)N(c2c(F)c(OC)cc(OC)c2F)Cc2cnc3[nH]c(CN4CCOCC4)cc3c21 [pemigatinib], the cell viability is reported as 0.989. In the case of `C#C[C@]1(O)C=C[C@H]2[C@@H]3CCC4=CC(=O)CC[C@@H]4[C@H]3CC[C@@]21CC` [Gestodene] + CCN1C(=O)N(c2c(F)c(OC)cc(OC)c2F)Cc2cnc3[nH]c(CN4CCOCC4)cc3c21 [pemigatinib], the cell viability is reported as 0.947. For `NCC(=O)O.[C-]#[O+].[C-]#[O+].[C-]#[O+].[Cl][Ru]` + CCN1C(=O)N(c2c(F)c(OC)cc(OC)c2F)Cc2cnc3[nH]c(CN4CCOCC4)cc3c21 [pemigatinib], the cell viability was 0.935. `Cc1cccc([C@H](C)c2c[nH]cn2)c1C` [Dexmedetomidine] + CCN1C(=O)N(c2c(F)c(OC)cc(OC)c2F)Cc2cnc3[nH]c(CN4CCOCC4)cc3c21 [pemigatinib] showed a cell viability of 0.898. In the case of `C[C@@]12N[C@@H](Cc3ccccc31)c1ccccc12` [(-)-MK 801 Maleate] + CCN1C(=O)N(c2c(F)c(OC)cc(OC)c2F)Cc2cnc3[nH]c(CN4CCOCC4)cc3c21 [pemigatinib], the cell viability is reported as 0.926. Work on `COc1ccc2c(c1)/C(=C/c1cnc[nH]1)C(=O)N2` + CCN1C(=O)N(c2c(F)c(OC)cc(OC)c2F)Cc2cnc3[nH]c(CN4CCOCC4)cc3c21 [pemigatinib] yielded a cell viability of 1.03. Compound `COc1ccc(C[C@H]2NC[C@H](O)[C@H]2OC(C)=O)cc1` [Anisomycin] + CCN1C(=O)N(c2c(F)c(OC)cc(OC)c2F)Cc2cnc3[nH]c(CN4CCOCC4)cc3c21 [pemigatinib] has a cell viability of 0.22. `CCC(COC(=O)c1cc(OC)c(OC)c(OC)c1)(c1ccccc1)N(C)C` (configuration not stated) [Trimebutine] + CCN1C(=O)N(c2c(F)c(OC)cc(OC)c2F)Cc2cnc3[nH]c(CN4CCOCC4)cc3c21 [pemigatinib] gave a cell viability of 1.04. `C/C=C(\C)C(=O)N[C@@H](c1ccccc1)[C@@H](O)C(=O)O[C@H]1C[C@@]2(O)[C@@H](OC(=O)c3ccccc3)[C@@H]3[C@]4(OC(C)=O)CO[C@@H]4C[C@H](O)[C@@]3(C)C(=O)[C@H](OC(C)=O)C(=C1C)C2(C)C` [Cephalomannine] + CCN1C(=O)N(c2c(F)c(OC)cc(OC)c2F)Cc2cnc3[nH]c(CN4CCOCC4)cc3c21 [pemigatinib] was tested, and the cell viability was 0.19. `NCCc1c[nH]c2ccc(O)cc12` [Serotonin HCl] + CCN1C(=O)N(c2c(F)c(OC)cc(OC)c2F)Cc2cnc3[nH]c(CN4CCOCC4)cc3c21 [pemigatinib] was tested, and the cell viability was 0.96. In the case of `C[C@@H]1CC[C@H]2[C@@H](C)C(=O)O[C@@H]3O[C@@]4(C)CC[C@@H]1[C@]32OO4` [Artemisinin] + CCN1C(=O)N(c2c(F)c(OC)cc(OC)c2F)Cc2cnc3[nH]c(CN4CCOCC4)cc3c21 [pemigatinib], the cell viability is reported as 0.96. Compound `Cc1c(Cl)c(OCC(=O)N2CCN(C)CC2)nc2sc(C(=O)NC3CC3)c(N)c12` + CCN1C(=O)N(c2c(F)c(OC)cc(OC)c2F)Cc2cnc3[nH]c(CN4CCOCC4)cc3c21 [pemigatinib] has a cell viability of 1.05. `O=C(Oc1ccc([N+](=O)[O-])cc1)N1CCC(C(O)(c2ccc3c(c2)OCO3)c2ccc3c(c2)OCO3)CC1` + CCN1C(=O)N(c2c(F)c(OC)cc(OC)c2F)Cc2cnc3[nH]c(CN4CCOCC4)cc3c21 [pemigatinib] was tested, and the cell viability was 0.961. Compound `O=C1CCC[C@@H]2[C@H]3CCCN4CCC[C@@H](CN12)[C@@H]34` [(+)-Matrine] + CCN1C(=O)N(c2c(F)c(OC)cc(OC)c2F)Cc2cnc3[nH]c(CN4CCOCC4)cc3c21 [pemigatinib] has a cell viability of 0.933. `Cc1cccc(C)c1NC1=NCCCS1` [Xylazine HCl] + CCN1C(=O)N(c2c(F)c(OC)cc(OC)c2F)Cc2cnc3[nH]c(CN4CCOCC4)cc3c21 [pemigatinib] was tested, and the cell viability was 0.954. With `O=C(O[C@H]1C[N+]2(CCCOc3ccccc3)CCC1CC2)C(O)(c1cccs1)c1cccs1` [Aclidinium Bromide] + CCN1C(=O)N(c2c(F)c(OC)cc(OC)c2F)Cc2cnc3[nH]c(CN4CCOCC4)cc3c21 [pemigatinib] the cell viability was 0.927. With `CN[C@@H]1C[C@H]2O[C@@](C)([C@@H]1OC)n1c3ccccc3c3c4c(c5c6ccccc6n2c5c31)C(=O)NC4` [Staurosporine] + CCN1C(=O)N(c2c(F)c(OC)cc(OC)c2F)Cc2cnc3[nH]c(CN4CCOCC4)cc3c21 [pemigatinib] the cell viability was 0.116. `CC[C@@H]1/C=C/C=C/C[C@H](C)[C@H](O)[C@](C)(O)C(=O)[C@H](C)[C@@H](O)[C@H](C)C(=O)[C@H](C)[C@@H](O)[C@H](C)/C=C/C(=O)O[C@H]2[C@@H](C)[C@@H](CC1)O[C@@]1(CC[C@@H](C)[C@@H](C[C@H](C)O)O1)[C@@H]2C` [Oligomycin A] + CCN1C(=O)N(c2c(F)c(OC)cc(OC)c2F)Cc2cnc3[nH]c(CN4CCOCC4)cc3c21 [pemigatinib] was tested, and the cell viability was 0.71. In the case of `Cc1cc(SCc2sc(-c3ccc(C(F)(F)F)c(F)c3)nc2C)ccc1OCC(=O)O` + CCN1C(=O)N(c2c(F)c(OC)cc(OC)c2F)Cc2cnc3[nH]c(CN4CCOCC4)cc3c21 [pemigatinib], the cell viability is reported as 1.04. `CC(C)(C)[C@]1(O)CC2OC(=O)CC23C(=O)OC2OC(=O)[C@H](O)C231` (some centres not stated) [Bilobalide] + CCN1C(=O)N(c2c(F)c(OC)cc(OC)c2F)Cc2cnc3[nH]c(CN4CCOCC4)cc3c21 [pemigatinib] showed a cell viability of 0.908. In the case of `O=P1(NCCCl)OCCCN1CCCl` (configuration not stated) [Ifosfamide] + CCN1C(=O)N(c2c(F)c(OC)cc(OC)c2F)Cc2cnc3[nH]c(CN4CCOCC4)cc3c21 [pemigatinib], the cell viability is reported as 0.936. `NC(=O)CN1CCCC1=O` [Piracetam] + CCN1C(=O)N(c2c(F)c(OC)cc(OC)c2F)Cc2cnc3[nH]c(CN4CCOCC4)cc3c21 [pemigatinib] gave a cell viability of 0.907.

From the supplement of paper PMC9588766
